According to PubChem BioAssay AID463173 (ICCB-Longwood Screening Facility, Harvard Medical School, 2010):
The campaign covered roughly 52,000 compounds. About 4,300 (8.3%) were called active. No stated cut-off is given here; in the data, active means survival mostly below about 52% (no sharp cut-off); inactive means mostly above about 56%. The list shows a part of the results.

These molecules were tested on DeltatarO mutant (assay: growth inhibition of S. aureus wild type versus tarO mutant, primary screen, teichoic acid synthesis inhibitors, RN4220, OD600 (AID 463173)). Settings: OD600, 18 h, hits give low values, screened at 18.75 µg/mL (by protocol).

Row | SMILES | survival
1 | Cc1ccc(-c2nc3cc(Cl)ccc3o2)cc1NC(=O)COc1ccc(F)cc1 | inactive: 53%
2 | Cc1cc(=O)[nH]c(SCC(=O)N(c2ccccc2)c2ccccc2)n1 | inactive: 54%
3 | O=C(Cn1c(=O)oc2cc(S(=O)(=O)NC3CCCC3)ccc21)Nc1ccc(F)c(F)c1 | inactive: 73%
4 | CCC(Oc1ccccc1)C(=O)Nc1nccs1 (configuration not stated) | inactive: 79%
5 | COC(=O)c1cc2nc(C)cc(C(F)(F)F)n2n1 | inactive: 97%
6 | Cc1ccc(Cl)cc1N1CCN(S(=O)(=O)c2cc3[nH]c(=O)c(=O)[nH]c3cc2C)CC1 | inactive: 67%
7 | Cc1c(C(=O)N2CCC(C)CC2)c(S(=O)(=O)N2CCN(c3ccc(Cl)cc3)CC2)c(C)n1C | inactive: 68%
8 | CCOc1ccccc1NC(=O)Cn1nnc(C(=O)Nc2ccc(C)c(C)c2)c1N | inactive: 61%
9 | CC(C)(C)OC(=O)N1CCC(c2c(C(=O)NC3CCCCC3)cnn2-c2cccc(Cl)c2)CC1 | inactive: 69%
10 | Cc1ccc(Cl)cc1N1CCN(C(=O)C2CCN(Cc3nc(-c4ccc(Cl)cc4)oc3C)CC2)CC1 | active: -9%
11 | CC1CCCN(CCCNC(=O)CN2C(=O)CSc3ccc(S(=O)(=O)N4CCOCC4)cc32)C1 (configuration not stated) | inactive: 117%
12 | COc1ccc(-c2nc3sc(CCNC(=O)C(=O)Nc4c(C)cccc4C)c(C)n3n2)cc1 | inactive: 87%
13 | COc1ccc(N2CCN(C(=O)c3oc4ccccc4c3NC(=O)c3ccccc3OC)CC2)cc1 | inactive: 131%
14 | CC(C)C(=O)OCc1cc(=O)n2nc(C3CCCCC3)sc2n1 | inactive: 74%
15 | Cc1ccc(NC(=O)CSc2nnc(N)s2)c(C)c1 | inactive: 131%
16 | COc1ccc(CNC(=O)C2CCN(S(=O)(=O)c3cccc4nonc34)CC2)cc1OC | inactive: 78%
17 | CCc1ccc(NCc2cc3cc4c(cc3n(CC(=O)Nc3ccc(F)cc3)c2=O)OCCO4)cc1 | inactive: 73%
18 | Cc1ccccc1CS(=O)(=O)Cc1ccc(C(=O)NCc2ccc(F)cc2)o1 | active: 47%
19 | COc1ccc(N(C)C(=O)c2ccc3c(c2)nnn3C)cc1 | inactive: 75%

Row | SMILES | survival
20 | COc1cccc(NC(=O)CCNC(=O)Cn2ccc3ccccc3c2=O)c1 | inactive: 63%
21 | Cc1ccc(NC(=O)Cn2c(=O)ccc3cc(S(=O)(=O)N4CCC(C)CC4)ccc32)cc1Cl | inactive: 74%
22 | COc1cccc(OCc2nc3ccccc3n2CCOc2cccc(C)c2)c1 | active: 44%
23 | N#Cc1cnc(SCc2ccccc2)nc1N | active: 39%
24 | O=C(NCCc1ccccc1)c1cc(Sc2ccc(F)cc2F)nc2ccccc12 | inactive: 98%
25 | COc1ccccc1N1CCN(C(CNC(=O)C(=O)NCCc2ccccc2)c2cccnc2)CC1 (configuration not stated) | inactive: 72%
26 | Cc1ccccc1CN1CCCN(CC(=O)Nc2c(C)cccc2C)S1(=O)=O | inactive: 93%
27 | Cc1cccc(CS(=O)(=O)c2ncc(Cl)c(C(=O)NCc3ccccc3)n2)c1 | active: -1%
28 | COc1ccc(NS(=O)(=O)c2ccc3[nH]c4c(c3c2)CCCCCC4)cc1 | active: -2%
29 | CCC(C(=O)Nc1ccc(C(C)=O)cc1)n1c(C)c2cnn(-c3ccccc3)c(=O)c2c1C (configuration not stated) | inactive: 86%
30 | Fc1ccc(CNc2nc(-c3ccccc3)cc(C(F)(F)F)n2)cc1 | active: 4%
31 | Cn1ccnc1SCC(=O)Nc1cc(Cl)ccc1Cl | inactive: 68%
32 | CCCCNC(=O)CCc1c(C)nc2c(c(C)nn2-c2ccccc2)c1C | inactive: 72%
33 | CCN(CC)c1ccc(C2C(C(N)=O)=C(C)Nc3ncnn32)cc1 (configuration not stated) | inactive: 66%
34 | Cc1ccc(NC(=O)C2CCCN2S(=O)(=O)c2cccc3cccnc23)cc1C (configuration not stated) | inactive: 68%
35 | Cc1cc(-n2c(C)nc3ccccc3c2=O)ccc1NC(=O)c1cccc([N+](=O)[O-])c1 | inactive: 92%
36 | Cc1cccc(NC(=O)CSc2cc(C)c3ccccc3n2)c1 | inactive: 47%
37 | CC(C)CNC(=O)C1=CC(c2ccc3c(c2)OCO3)=NS(=O)(=O)N1C | inactive: 86%
38 | Cc1ccc(Cn2c(CNC(=O)c3ccccc3Br)nc3cccnc32)cc1 | inactive: 120%

Row | SMILES | survival
39 | COc1ccc(N2CCN(C(=O)Nc3cccc(C(F)(F)F)c3)CC2)cc1 | inactive: 150%
40 | Cc1ccc(-n2c(=O)c3oc4ccccc4c3n(CC(=O)Nc3ccccc3)c2=O)cc1C | inactive: 54%
41 | CCOc1cc(C2c3c(-c4ccccc4O)n[nH]c3C(=O)N2CCc2ccccc2)ccc1O (configuration not stated) | active: 29%
42 | CNC(=O)COc1ccc(Nc2nnc(-c3ccc(C)c(S(=O)(=O)NC(C)(C)C)c3)c3ccccc23)cc1 | inactive: 85%
43 | COc1cc(NC(=O)Cn2cc(S(=O)(=O)c3ccccc3)c(=O)c3ccccc32)cc(OC)c1 | inactive: 57%
44 | COc1ccc(-c2cc(C(F)(F)F)nc(SCCC(=O)Nc3c(C)cccc3C)n2)cc1 | inactive: 76%
45 | CCc1ccc(C2c3c(oc4ccc(C)cc4c3=O)C(=O)N2c2nc(C)c(C)s2)cc1 (configuration not stated) | inactive: 178%
46 | O=C(Cn1cnc2scc(-c3ccccc3)c2c1=O)NCc1ccco1 | inactive: 60%
47 | Cc1ccc(OCC(=O)Nc2ccc(C(=O)OCc3cc(=O)n4c(C)csc4n3)cc2)cc1 | inactive: 124%
48 | COc1ccc(-c2onc(C)c2C)cc1S(=O)(=O)NC1CCC(C)CC1 (configuration not stated) | inactive: 84%
49 | O=C(CN(c1ccccn1)S(=O)(=O)c1ccccc1)N=Nc1c(O)[nH]c2ccccc12 | inactive: 71%
50 | O=C(CSc1nc(=O)[nH]c2c1CCC2)NCc1ccccc1 | inactive: 67%
51 | Cc1ccc(C(=O)COC(=O)CCC(=O)Nc2ccc(Oc3ccccc3)cc2)cc1C | inactive: 70%
52 | Oc1c(C(c2ccccc2)N2CCN(c3ccccc3)CC2)sc2nc(-c3ccco3)nn12 (configuration not stated) | inactive: 117%
53 | COC(=O)CSc1nnc(CNc2ccc(Cl)cc2)n1-c1ccc(OC)cc1 | inactive: 86%
54 | CCOC(=O)c1c(NC(=O)c2cc(-c3ccc(OC)cc3)on2)sc(C)c1C | active: 45%
55 | O=C(NCCc1ccccc1)C(=O)Nc1cccc(Br)c1 | inactive: 68%
56 | COc1ccc(CNC(=O)Cn2c(=O)oc3cc(S(=O)(=O)N4CCCC4)ccc32)cc1 | inactive: 93%
57 | CCCOc1ccc(C(=O)Nc2c(C(=O)c3ccc(C)cc3)oc3ccccc23)cc1 | inactive: 70%
